{"source": "the supplement of paper PMC8728848", "test_in_all_cases": "glycan array binding signal (z-score within array); higher = stronger binding", "conditions_in_all_cases": "glycan notation: IUPAC condensed, linker removed", "key": {"[1]": {"target": "Gal(b1-3)[Neu5Ac(b2-6)]GalNAc", "outline": "(§1)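 Columns mapping to the same glycan were averaged after glycan names were converted to IUPAC-condensed notation. The data come from 3228 arrays in the Consortium for Functional Glycomics database, limited to those with an available protein sequence. Binding is reported as a within-array Z-score averaged across arrays of one protein sequence and across linkers.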"}, "Gal(b1-4)Gal": {"target": "Gal(b1-4)Gal", "outline": "as §1"}, "[2]": {"target": "Gal(b1-4)GalNAc(a1-3)[Fuc(a1-2)]Gal(b1-4)GlcNAc", "outline": "as §1"}, "[3]": {"target": "Gal(b1-4)GalNAc(b1-3)[Fuc(a1-2)]Gal(b1-4)GlcNAc", "outline": "as §1"}, "Gal(b1-4)Glc": {"target": "Gal(b1-4)Glc", "outline": "as §1"}, "Gal(b1-4)Glc6S": {"target": "Gal(b1-4)Glc6S", "outline": "as §1"}, "Gal(b1-4)GlcNAc": {"target": "Gal(b1-4)GlcNAc", "outline": "as §1"}, "[4]": {"target": "Gal(b1-4)GlcNAc(a1-6)Gal(b1-4)GlcNAc", "outline": "as §1"}, "Gal(b1-4)GlcNAc(b1-2)Man": {"target": "Gal(b1-4)GlcNAc(b1-2)Man", "outline": "as §1"}, "[5]": {"target": "Gal(b1-4)GlcNAc(b1-2)Man(a1-3)Man(b1-4)GlcNAc(b1-4)GlcNAc", "outline": "as §1"}, "[6]": {"target": "Gal(b1-4)GlcNAc(b1-2)Man(a1-3)[Gal(b1-4)GlcNAc(b1-2)Man(a1-6)]Man(b1-4)GlcNAc(b1-4)GlcNAc", "outline": "as §1"}, "[7]": {"target": "Gal(b1-4)GlcNAc(b1-2)Man(a1-3)[Gal(b1-4)GlcNAc(b1-2)Man(a1-6)]Man(b1-4)GlcNAc(b1-4)[Fuc(a1-6)]GlcNAc", "outline": "as §1"}, "[8]": {"target": "Gal(b1-4)GlcNAc(b1-2)Man(a1-3)[Gal(b1-4)GlcNAc(b1-2)Man(a1-6)][Gal(b1-4)GlcNAc(b1-4)]Man(b1-4)GlcNAc(b1-4)[Fuc(a1-6)]GlcNAc", "outline": "as §1"}, "[9]": {"target": "Gal(b1-4)GlcNAc(b1-2)Man(a1-3)[Gal(b1-4)GlcNAc(b1-2)Man(a1-6)][GlcNAc(b1-4)]Man(b1-4)GlcNAc(b1-4)[Fuc(a1-6)]GlcNAc", "outline": "as §1"}, "[10]": {"target": "Gal(b1-4)GlcNAc(b1-2)Man(a1-3)[GlcNAc(b1-2)Man(a1-6)]Man(b1-4)GlcNAc(b1-4)GlcNAc", "outline": "as §1"}, "[11]": {"target": "Gal(b1-4)GlcNAc(b1-2)Man(a1-3)[GlcNAc(b1-4)][Gal(b1-4)GlcNAc(b1-2)Man(a1-6)]Man(b1-4)GlcNAc(b1-4)GlcNAc", "outline": "as §1"}, "[12]": {"target": "Gal(b1-4)GlcNAc(b1-2)Man(a1-3)[Man(a1-6)]Man(b1-4)GlcNAc(b1-4)GlcNAc", "outline": "as §1"}, "[13]": {"target": "Gal(b1-4)GlcNAc(b1-2)Man(a1-6)Man(b1-4)GlcNAc(b1-4)GlcNAc", "outline": "as §1"}, "[14]": {"target": "Gal(b1-4)GlcNAc(b1-2)Man(a1-6)[GlcNAc(b1-2)Man(a1-3)]Man(b1-4)GlcNAc(b1-4)GlcNAc", "outline": "as §1"}, "[15]": {"target": "Gal(b1-4)GlcNAc(b1-2)Man(a1-6)[Man(a1-3)]Man(b1-4)GlcNAc(b1-4)GlcNAc", "outline": "as §1"}, "[16]": {"target": "Gal(b1-4)GlcNAc(b1-2)[Gal(b1-4)GlcNAc(b1-4)]Man(a1-3)[Gal(b1-4)GlcNAc(b1-2)Man(a1-6)]Man(b1-4)GlcNAc(b1-4)GlcNAc", "outline": "as §1"}, "[17]": {"target": "Gal(b1-4)GlcNAc(b1-2)[Gal(b1-4)GlcNAc(b1-4)]Man(a1-3)[Gal(b1-4)GlcNAc(b1-2)[Gal(b1-4)GlcNAc(b1-6)]Man(a1-6)]Man(b1-4)GlcNAc(b1-4)GlcNAc", "outline": "as §1"}}, "note": "The other results are listed elsewhere or left out."}
{"binder": "rMpL (Macrolepiota procera) (protein) MSTQVSSGRTYKITNVIAGTVIDLSGEDNKSIIGYPYHSGKNQQWTFNWTGKAWTLRSASSGSYLGIEGTPAGGTRLVAVNDPFEWHIWRDEANENAFRIFVPFTNYNLDLSGYGDTTPGTPVQLWWTWEGLHQTWTIDRP", "values": [{"measurement": "glycan array binding signal (z-score)", "setting": "[1]", "value": -0.327}, {"measurement": "glycan array binding signal (z-score)", "setting": "Gal(b1-4)Gal", "value": -0.278}, {"measurement": "glycan array binding signal (z-score)", "setting": "[2]", "value": -0.148}, {"measurement": "glycan array binding signal (z-score)", "setting": "[3]", "value": 0.063}, {"measurement": "glycan array binding signal (z-score)", "setting": "Gal(b1-4)Glc", "value": -0.195}, {"measurement": "glycan array binding signal (z-score)", "setting": "Gal(b1-4)Glc6S", "value": -0.052}, {"measurement": "glycan array binding signal (z-score)", "setting": "Gal(b1-4)GlcNAc", "value": 0.051}, {"measurement": "glycan array binding signal (z-score)", "setting": "[4]", "value": 9.59}, {"measurement": "glycan array binding signal (z-score)", "setting": "Gal(b1-4)GlcNAc(b1-2)Man", "value": -0.283}, {"measurement": "glycan array binding signal (z-score)", "setting": "[5]", "value": 0.072}, {"measurement": "glycan array binding signal (z-score)", "setting": "[6]", "value": 0.854}, {"measurement": "glycan array binding signal (z-score)", "setting": "[7]", "value": 0.657}, {"measurement": "glycan array binding signal (z-score)", "setting": "[8]", "value": 2.02}, {"measurement": "glycan array binding signal (z-score)", "setting": "[9]", "value": 0.777}, {"measurement": "glycan array binding signal (z-score)", "setting": "[10]", "value": 0.046}, {"measurement": "glycan array binding signal (z-score)", "setting": "[11]", "value": 0.488}, {"measurement": "glycan array binding signal (z-score)", "setting": "[12]", "value": 0.109}, {"measurement": "glycan array binding signal (z-score)", "setting": "[13]", "value": -0.176}, {"measurement": "glycan array binding signal (z-score)", "setting": "[14]", "value": -0.158}, {"measurement": "glycan array binding signal (z-score)", "setting": "[15]", "value": 0.139}, {"measurement": "glycan array binding signal (z-score)", "setting": "[16]", "value": 2.34}, {"measurement": "glycan array binding signal (z-score)", "setting": "[17]", "value": 2.77}]}
